Several values for one entry are separate records, joined by “and”; a condition that tells them apart may be missing. Equal entries are not always repeated.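 Five concentrations, 48 hours, 96-well plates. GI50 is the concentration that inhibits growth by half. Definition used: TGI = concentration required for complete inhibition of growth.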 Peptide text beside a SMILES is read from it. * marks the point of attachment. Cbz = O=C(OCc1ccccc1)*
test system: NCI-H322M lung; test: NCI-60 cell line screen, 48 h

Question: With `CCC1=C(CC2NCCc3cc(OC)c(OC)cc32)CC2c3ccccc3CCN2C1` (stereo not drawn) as the compound, how does the TGI read?
Answer: 97.8 µM

Question: For `Clc1ccc(C2=Cc3nc2c(-c2ccccc2)c2ccc([nH]2)c(-c2ccccc2)c2nc(c(-c4ccccc4)c4ccc([nH]4)c3-c3ccccc3)C=C2)cc1`, which TGI is on record?
Answer: > 62.5 µM

Question: With `CN(C)C(=S)/N=C(\N)N(C)C` as the compound, how does the TGI read?
Answer: > 100 µM

Question: With `CN1CCN(c2ccc3nc(-c4ccc5nc(CCCc6ccc(N(CCCl)CCCl)cc6)[nH]c5c4)[nH]c3c2)CC1` as the compound, how does the TGI read?
Answer: > 100 µM

Question: For `C=C(C)[C@@H]1CC[C@]2(COC(=O)c3ccccc3C(=O)O)CC[C@]3(C)[C@H](CC[C@@H]4[C@@]5(C)CC[C@H](OC(=O)c6ccccc6C(=O)O)C(C)(C)[C@@H]5CC[C@]43C)[C@@H]12`, which GI50 is on record?
Answer: 50.7 µM

Question: And the TGI?
Answer: > 100 µM

Question: For `CCOC(=O)COc1cc(-c2ccccc2)nc2cc(F)ccc12`, which TGI is on record?
Answer: > 100 µM

Question: How did the GI50 turn out when `O=C(/C=C/c1cc(O)ccc1O)c1ccc(Cl)cc1` was run?
Answer: 34.2 µM

Question: And the TGI?
Answer: > 100 µM

Question: For `COc1cc(/C=C/C(=O)N[C@@H]2C(=O)N3[C@@H]2SC(C)(C)[C@@H]3C(=O)O)ccc1O`, which TGI is on record?
Answer: > 100 µM

Question: With `CC(C)=CC1(C)/C(=N\O)C(C)(CC(C)C)C(=O)N1O` (stereo not drawn) as the compound, how does the TGI read?
Answer: > 100 µM

Question: Which TGI does the source give for `Oc1ccc(Cl)cc1C1=Nn2c(COc3ccc4c(c3)CCCC4)nnc2SC1` here?
Answer: 47.5 µM

Question: How did the GI50 turn out when `COc1ccc(-c2cncn2-c2ccc(-c3nc4cc(OC)c(OC)c(OC)c4s3)cc2)cc1N` was run?
Answer: 25.7 µM

Question: What about the TGI of the same compound?
Answer: > 100 µM

Question: For `COc1cc2c3c(n(CCCN=[N+]=[N-])c(=O)c2cc1OC)-c1ccc(NC(C)=O)cc1C3=O`, which GI50 is on record?
Answer: > 50 µM

Question: What about the TGI of the same compound?
Answer: > 50 µM

Question: How did the TGI turn out when `Nc1ncnc2c1N=CN(Oc1ccccc1)N2` was run?
Answer: > 100 µM

Question: Which TGI does the source give for `O=C(O)c1ccccc1C(=O)Nc1cc2c(cc1Br)-c1ccccc1C2=O` here?
Answer: > 100 µM

Question: How did the TGI turn out when `CCCCCCCCCCCCCCCCCCOC(COP(=O)(O)OCC1OC(n2cc(F)c(=O)[nH]c2=O)CC1O)COP(=O)(O)OCC1OC(n2ccc(N)nc2=O)C(O)C1O` (stereo not drawn) was run?
Answer: > 100 µM

Question: What does the source list for `CCOC(=O)CC1C(CNC(=O)NC)OC(n2cnc3c(NC(=O)Nc4ccccc4)ncnc32)C1O[Si](C)(C)C(C)(C)C` (stereo not drawn)?
Answer: GI50: > 100 µM; TGI: > 100 µM

Question: `CC(C)(C)[Si](C)(C)O/N=C\c1cccc(O[Si](C)(C)C(C)(C)C)c1` was tested. Which TGI did it give?
Answer: 29.8 µM

Question: How did the GI50 turn out when `O=C1c2ccccc2-c2c1c1ccc3ccccc3c1n2-c1ccccc1` was run?
Answer: 25.3 µM

Question: And the TGI?
Answer: 61.1 µM

Question: With `Cn1c(=O)c2[nH]c(CCS)nc2n(C)c1=O` as the compound, how does the TGI read?
Answer: > 100 µM

Question: How did the TGI turn out when `c1ccc(C[N+]23C(CC[C@H]2c2ccccc2)CC[C@H]3c2ccccc2)cc1` (stereo partly drawn) was run?
Answer: > 100 µM

Question: For `COc1ccccc1NC(=O)C1=C(C)NC(C)=C(C(=O)Nc2ccccc2OC)C1c1ccc(C2C(C(=O)Nc3ccccc3OC)=C(C)NC(C)=C2C(=O)Nc2ccccc2OC)cc1`, which TGI is on record?
Answer: 10.5 µM

Question: With `CCOC(=O)CCC(NC(=O)CNC(=O)CNC(=O)C(CCC(=O)OCC)NC(=O)C(CCC(=O)OCC)NC(=O)C(CCC(=O)OCC)NC(=O)OCc1ccccc1)C(=O)NC(CCC(=O)OCC)C(=O)NC(CCC(=O)OCC)C(=O)OCC` (stereo not drawn) (Cbz-E(OEt)E(OEt)E(OEt)GGE(OEt)E(OEt)E(OEt)-OEt; configuration not given here) as the compound, how does the TGI read?
Answer: > 75 µM

Question: Which TGI does the source give for `CC1=C(C(=O)NCc2ccccc2)C(c2ccc(N(C)C)cc2)C(C(=O)NCc2ccccc2)=C(C)N1` here?
Answer: > 100 µM

Question: `CCOC(=O)/C=C(\C(=O)OCC)n1cc(C)c(=O)n(Cc2cn(COCCOC(C)=O)nn2)c1=O` was tested. Which TGI did it give?
Answer: > 100 µM

Question: How did the TGI turn out when `COC(=O)C1OC(SCCN)C(O)C(O)C1O` (stereo not drawn) was run?
Answer: > 100 µM

Question: Which TGI does the source give for `CCOC1Oc2ccccc2-c2nc(N)ncc21` (stereo not drawn) here?
Answer: > 100 µM

Question: With `Cc1nc2sc(C(=O)Nc3cccc(Cl)c3C)c(N)c2cc1C(O)c1ccccc1` (stereo not drawn) as the compound, how does the GI50 read?
Answer: 0.0685 µM

Question: What about the TGI of the same compound?
Answer: 35.1 µM

Question: For `CCN1C(=O)N[C@H]2[C@@H]3NC(=O)c4ccc(Cl)n4[C@@H]3C[C@]21O`, which GI50 is on record?
Answer: 0.795 µM

Question: And the TGI?
Answer: 8.1 µM

Question: With `O=C(Cc1ccccc1)Nc1nc2ccc(Cl)cc2c2nc(-c3ccco3)nn12` as the compound, how does the TGI read?
Answer: > 100 µM

Question: For `COC(=O)C[C@@H]1CC=CC(=O)/C1=C(O)/C=C/c1ccccc1`, which GI50 is on record?
Answer: 1.53 µM

Question: What about the TGI of the same compound?
Answer: 3.51 µM

Question: For `OCC(O)C(OC1OC(CO)C(O)C(O)C1O)c1nn(-c2ccc(Cl)cc2)c2nc3cc(Cl)c(Cl)cc3nc12` (stereo not drawn), which TGI is on record?
Answer: > 100 µM

Question: With `CC(C)(C)COS(=O)OCC(C)(C)C` as the compound, how does the TGI read?
Answer: > 100 µM

Question: Which TGI does the source give for `C#CCOCn1cnc2c(N)ncnc21` here?
Answer: > 100 µM

Question: How did the GI50 turn out when `O=C(Cc1ccc(-c2ccc(OCCN3CCOCC3)cc2)cn1)NCc1ccccc1` was run?
Answer: 0.0747 µM and 0.0579 µM

Question: What about the TGI of the same compound?
Answer: > 100 µM

Question: `COc1ccc(-n2nc(C(=O)NCC(=O)Nc3nc4cc(OC)ccc4s3)c3ccccc3c2=O)cc1` was tested. Which GI50 did it give?
Answer: 2.1 µM

Question: What about the TGI of the same compound?
Answer: > 26.2 µM

Question: With `CC(=O)NC(CCCCN(Cc1ccccc1)C(=O)N(C)N=O)C(=O)NCc1ccccc1` (stereo not drawn) as the compound, how does the TGI read?
Answer: > 100 µM

Question: With `COc1cccc(C=C(C#N)C#N)c1OC` as the compound, how does the TGI read?
Answer: > 100 µM

Question: With `N#CC(C(=S)Nc1ccccc1)=C1Nc2ccccc2N1` as the compound, how does the TGI read?
Answer: > 10 µM

Question: How did the TGI turn out when `COc1ccccc1CC1(O)OC(=O)c2ccccc21` (stereo not drawn) was run?
Answer: > 100 µM

Question: For `CN(C)CCSC(=Nc1ccccc1)n1cccc1`, which TGI is on record?
Answer: > 100 µM

Question: `COc1ccc2c3c1OC1C4(CCC5C(C2)N(CC2CC2)CCC351)OCCO4` (stereo not drawn) was tested. Which TGI did it give?
Answer: > 100 µM

Question: `COc1cc(NC(=O)c2cc3ccccc3cc2O)c(OC)cc1Cl` was tested. Which GI50 did it give?
Answer: 1.68 µM

Question: What about the TGI of the same compound?
Answer: 6.06 µM

Question: With `Cc1ccc(S(=O)(=O)Nc2cc(=O)[nH]c3c2CCC3)cc1` as the compound, how does the TGI read?
Answer: > 100 µM

Question: With `CC(C)(C)c1cc(C#N)c2c(c1)C(=O)OC2(c1ccccc1)c1ccccc1C#N` (stereo not drawn) as the compound, how does the TGI read?
Answer: > 100 µM

Question: For `COc1ccc2c(ccc3oc([N+](=O)[O-])cc32)c1`, which GI50 is on record?
Answer: 0.47 µM

Question: And the TGI?
Answer: 4.32 µM

Question: For `Clc1cccc(/C=c2\nc(-c3ccccc3)n3c2nc2ccccc23)c1`, which TGI is on record?
Answer: > 100 µM

Question: How did the GI50 turn out when `NCCNc1nc2ccc(F)cc2c2c(=O)c3cc(F)ccc3sc12` was run?
Answer: 8.77 µM

Question: What about the TGI of the same compound?
Answer: 21.1 µM

Question: Which TGI does the source give for `COc1cc2ccnc(-c3n[nH]c4cc(OC)c(OC)cc34)c2cc1OC` here?
Answer: > 100 µM

Question: For `COc1c(OC)c(OC)c2c(=O)c(OC)c(-c3ccc4c(c3)OCO4)oc2c1OC`, which TGI is on record?
Answer: > 100 µM

Question: `O=S(=O)(N1CCCCN(S(=O)(=O)C(F)(F)F)CCCN(S(=O)(=O)C(F)(F)F)CCCCN(S(=O)(=O)C(F)(F)F)CCCN(S(=O)(=O)C(F)(F)F)CCCCN(S(=O)(=O)C(F)(F)F)CCCN(S(=O)(=O)C(F)(F)F)CCCCN(S(=O)(=O)C(F)(F)F)CCC1)C(F)(F)F` was tested. Which TGI did it give?
Answer: > 31.6 µM

Question: For `CNc1ccc(Cl)cc1C(=O)N1CCC[C@H]1CO`, which TGI is on record?
Answer: > 100 µM

Question: With `N#CCc1nc(-c2cc3ccc(O)cc3oc2=O)cs1` as the compound, how does the TGI read?
Answer: > 100 µM

Question: How did the TGI turn out when `C=C(CN(C)C)C(=O)c1ccccc1Cl` was run?
Answer: > 100 µM

Question: `COc1ccc(-c2n[nH]c3nc4ccccc4n3c2=O)cc1` was tested. Which TGI did it give?
Answer: > 100 µM
